# PubChem BioAssay AID1963576 (National Center for Advancing Translational Sciences (NCATS), 2024)
# In all, about 46,000 compounds went through this assay and about 60 (0.1%) were called active. Inconclusive results (about 3%) are left out. Calls come from the whole dose curve; as a rule, active = well fitted inhibition curve with a large enough effect; inconclusive = small, poorly fitted or top-dose-only effect; inactive = no such curve, though single readings can be large or run the other way. This is one part of the list.
# Experiment: Primary qHTS assay for Inhibitors of ovarian cancer metastasis using an organotypic tumor microenvironment (TME) model.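 For activity change, negative = inhibition: plate controls were DMSO wells for no effect and tomatine positive control wells for full effect.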 Note: nearly all actives have a fitted effect of over 65% in size.
# Conditions: SKOV3ip1-GFP adhesion/invasion on 3D omental model, fluorescence; series mostly up to 45.8 µM; activity change, negative = inhibition: at the top concentration
# Procedure, shortened: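 A 3D layer of primary human omental fibroblasts, mesothelial cells, fibronectin and collagen I, grown 48 hr, received SKOV3ip1-GFP cells in serum-free medium plus compounds at 0.36-46 umol/L. After 2 hr RT and 16 hr 37 C, fixed adherent GFP cells were counted; normalized to DMSO and tomatine.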
Structure (SMILES),"activity change, negative = inhibition",outcome
Cc1ccccc1NC(=O)c1ccccc1NC(=O)c1ccccc1Cl,inactive: -2.24%,–
Cc1ccc(-c2cn3c(n2)sc2cc(C(=O)NCCCc4ccccc4)ccc23)cc1,inactive: 5.97%,–
CCOC(=O)c1cc(-c2ccc(C)cc2)nn1Cc1ccccc1,inactive: 16%,–
COc1ccc(NS(=O)(=O)c2ccc(NC(=O)N3CCCC3)cc2)cc1,inactive: 2.95%,–
CNS(=O)(=O)c1cn(CC(=O)Nc2ccc(C)cc2C)cc1S(=O)(=O)NC,–,inactive
CCOc1ccc(-c2nc3c(C#N)c[nH]n3c2NC2CCCC2)cc1,inactive: -5.33%,–
Cc1ccc(C2=Nc3ccccc3NC(c3ccncc3)=N2)cc1,inactive: 1.11%,–
COc1ccc(Nc2cc(C)nc(-n3nc(C)cc3C)n2)cc1Cl,inactive: 2.64%,–
COc1ccc(CCNC(=O)CCc2c(C)nc3c(c(C)nn3-c3ccc(C)cc3)c2C)c(OC)c1,–,inactive
CCc1ccccc1NC(=O)C1CCCN(S(=O)(=O)c2cccc3nsnc23)C1 (stereo not drawn),–,inactive
COc1ccc2c(c1)c(=O)c(S(=O)(=O)c1ccc(C)c(C)c1)cn2CC(=O)Nc1ccccc1,–,inactive
CCc1ccc(N2CCn3c2nc2c3c(=O)n(Cc3ccc(F)cc3)c(=O)n2C)cc1,inactive: -6.67%,–
Cc1ccccc1-c1nc(CS(=O)(=O)CC(=O)NC(C)c2ccccc2)c(C)o1 (stereo not drawn),inactive: -22.6%,–
CCN(CCCNC(=O)c1cc2c(=O)n(CC)c3ccccc3c2s1)c1cccc(C)c1,–,inactive
Cc1ccc(-n2c3c(c(=O)[nH]c2=O)C(NC(=O)c2ccccc2F)(C(F)(F)F)C(=O)N3)cc1C (stereo not drawn),inactive: -4.51%,–
COc1ccc(-c2cc(C(=O)Nc3c(Cl)cccc3Cl)no2)cc1OC,inactive: -2.27%,–
Cc1ccc(-c2cc(C(=O)O)n(Cc3ccccc3)n2)cc1,–,inactive
COc1ccc(C(=O)Nc2ccc(-n3nncc3-c3ccc(OC)c(OC)c3)cc2)cc1,inactive: -3.85%,–
Cc1ccc(S(=O)(=O)c2nc(-c3ccccc3)oc2N2CCN(c3ccccc3)CC2)cc1,–,inactive
Cc1ccc(CNc2ccc(-c3nc(-c4ccco4)no3)cc2[N+](=O)[O-])cc1,inactive: 1.16%,–
COc1cc(-c2noc(C3CC(=O)N(c4ccc5c(c4)OCCO5)C3)n2)cc(OC)c1OC (stereo not drawn),inactive: 7.89%,–
O=C(Nc1cc(F)ccc1F)C1COc2ccccc2C1 (stereo not drawn),inactive: 15.1%,–
CCc1ccc(NC(=O)c2cc3c(=O)n(Cc4cccs4)ccc3nc2C)cc1,inactive: -22%,–
COc1ccc(Cl)cc1NC(=O)CN(c1cc(C)cc(C)c1)S(=O)(=O)c1c(C)n[nH]c1C,inactive: 56.7%,–

Structure (SMILES),"activity change, negative = inhibition",outcome
O=S(=O)(c1ccccc1)N1CCC(c2ccncc2)CC1,inactive: -24.3%,–
Cc1nn(CC(=O)NCCc2ccccc2Cl)c(=O)c2nn(-c3ccccc3)c(C)c12,inactive: 8.15%,–
CC(=O)c1cc(-c2ccc(F)cc2)n(CCC(=O)Nc2nc3c(C)cccc3s2)c1C,inactive: 11.2%,–
Cc1ccc2c(c1)c1c(c(=O)n(-c3ccccc3C)c(=O)n1CC(=O)NCCC1=CCCCC1)n2C,inactive: 13.6%,–
COc1ccc(CNCc2c(C(=O)O)c(C)n(Cc3ccc(Cl)cc3)c2C)c(OC)c1,inactive: -15.5%,–
CCOc1ccc(CNC(=O)Cn2nc(C)c3nn(-c4ccc(Cl)cc4)c(C)c3c2=O)cc1OC,inactive: 8.48%,–
CCC(C)NC(=O)c1sc2nc(C)c(C(=O)Nc3ccc(C)cc3C)c(-c3ccc(Cl)cc3)c2c1N (stereo not drawn),inactive: 2.7%,–
O=C1COc2cc(S(=O)(=O)CCC(=O)N3CCN(c4cccc(Cl)c4)CC3)c(Cl)cc2N1,–,inactive
Cc1ccc(-n2ncc3c(NC4CCCCC4)ncnc32)cc1,inactive: -5.59%,–
COC(=O)c1cnn(-c2ccc(C(=O)Nc3ccc(C(C)=O)cc3)cc2)c1N,inactive: 3.01%,–
O=C(CN1CCSc2ccccc21)N1CCN(c2cccc(Cl)c2)CC1,–,inactive
Cc1ccc(Cc2nc3ccccc3nc2SCC(=O)Nc2cccc(C(F)(F)F)c2)cc1,–,inactive
Cc1ccc(-c2cc(C(=O)Nc3c(C(=O)c4ccccc4)oc4ccccc34)no2)cc1F,inactive: -1.67%,–
CC(C)(C)c1ccc(S(=O)(=O)NCc2nc3cccnc3n2Cc2ccccc2Cl)cc1,inactive: -18.8%,–
Cc1ccc(CNS(=O)(=O)c2c(C)nc3scc(C)n3c2=O)cc1,inactive: -4.69%,–
O=C(CSc1nc(-c2ccccc2)[nH]c1-c1ccccc1)Nc1ccc2c(c1)OCCO2,inactive: 3.67%,–
CC(C)c1ccccc1NC(=O)CN1C(=O)c2cccc3cccc1c23,–,inactive
CCC(=O)Nc1ccc2nc(SCc3ccc(C)cc3)sc2c1,–,inactive
Cc1nc(N2CCCC2)c2c(C(=O)N3CCN(c4cccc(C)c4C)CC3)c(C)oc2n1,inactive: -10.3%,–
COc1ccc(S(=O)(=O)N2CCN(Cc3ccc4c(c3)OCO4)CC2)cc1OC,inactive: -5.65%,–
CN(CC(=O)Nc1ccccc1Cl)S(=O)(=O)c1ccc(C(=O)N2CCOCC2)s1,inactive: 125%,–
CC(C)c1cc(-c2nc(-c3ccccc3)no2)n[nH]1,–,inactive
Cc1ccc(Nc2cc(C)c(C#N)c3nc4ccccc4n23)cc1Cl,–,inactive
CCCSCCCNC(=O)c1ccc2c(c1)nc1n2CCCCC1,inactive: -1.74%,–
